This note sets out measurements from the supplement of paper PMC10441789.

This is one part of the list. Antibody binding of pooled human sera (four to six donors per pool; dilution not stated) to peptides of the Trypanosoma cruzi antigen TSSA on microarrays. Quantile-normalised fluorescence in arbitrary units, mean of duplicate arrays; higher = more binding. No active / inactive call. The uninfected pools are read here as the healthy donors of the same country. The strongest signals lie near the top of the scale (about 60,000).

The test system of this experiment is pooled sera of uninfected people, Colombia. In words: antibody binding signal (normalised fluorescence) (arbitrary fluorescence units); higher = stronger serum antibody binding to peptide. On the procedure: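 Microarray of 15-residue peptides over residues 30-55 of Trypanosoma cruzi TSSAII, each with 1 to 10 substitutions at naturally variable positions, probed with one serum pool per country.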
ISTPPSGTDKKPAAG had an antibody binding signal of 267.
For KDKKPAAGETPSPPG the value was 75.8.
GKDKKAATGEAPSQS yielded an antibody binding signal of 261.
Under SGKENKAAAGGTPSQ stands 313; under KDKKTAAGETPSQSG, 244.
SSTPPSGTDNKAAAG yielded an antibody binding signal of 165.
In turn, GKEKKTATGETPSPS displayed an antibody binding signal of 108.
For GKEKKPATGGAPSQS the value was 86.4; for PPSGTENKTATGEAP, 318.
As to STPPSGKDNKTATGG, the antibody binding signal came out at 294.
Take TEKKAAAGGTPSPSG: the antibody binding signal amounted to 208.
Take KENKTAAGGAPSPPG: the antibody binding signal is 123.
For SGTDNKAATGEAPSP the value was 144; for KEKKTATGGTPSQPG, 165.
STPPSGKEKKAATGE returned an antibody binding signal of 459.
Under DKKPATGGAPSPSGA stands 132; under STPPSGTENKPAAGE, 518.
As for DNKAATGGAPSQSGA, the antibody binding signal amounted to 215.
For STPPSGKENKPATGG the value was 743.
Under TISTPPSGKDKKTAA stands 153; under TENKAAAGGAPSQPG, 174.
In turn, GTENKAAAGETPSQP had an antibody binding signal of 211.
As for PPSGTDKKAATGGAP, the antibody binding signal was 877.
For TEKKAATGGTPSPPG the value was 1020; for KEKKTAAGGAPSQSG, 151; for TPPSGKDNKPATGGT, 188.
PSGKEKKPATGETPS showed an antibody binding signal of 268.
Sequence TEKKPATGGAPSQPG returned an antibody binding signal of 354.
In the case of PPSGTEKKTATGGTP, the antibody binding signal turned out to be 579.
As to PSGKDNKPAAGEAPS, the antibody binding signal came to 203.
GKENKPATGGAPSQP returned an antibody binding signal of 121.
TSSTPPSGTDKKAAA returned an antibody binding signal of 279.
PPSGTDKKAAAGGAP showed an antibody binding signal of 428.
The sequence SGKDNKTATGGAPSP showed an antibody binding signal of 383.
SGTDNKTAAGGAPSQ yielded an antibody binding signal of 250.
For SGTDKKTATGGTPSQ the value was 681; for GTEKKAAAGETPSQS, 923.
Turning to GTENKAAAGGTPSQP, the antibody binding signal came to 315.
For GTENKPAAGEAPSQS the value was 106.
Turning to TPPSGKENKTATGET, the antibody binding signal is 768.
